Among all 310,000 compounds or so, about 14,000 (4.5%) showed an effect of 50% or more. Effects have a minus sign here. Some of the results follow.
biological target: human ether-à-go-go-related gene (hERG) potassium channel (human, UniProt Q12809); test: primary screen, population patch clamp on CHO cells stably expressing hERG
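Note: peak tail current of the secondary pulse compared with the same well before compound.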

human ether-à-go-go-related gene (hERG) potassium channel, sequence (Q12809 whole entry, looked up): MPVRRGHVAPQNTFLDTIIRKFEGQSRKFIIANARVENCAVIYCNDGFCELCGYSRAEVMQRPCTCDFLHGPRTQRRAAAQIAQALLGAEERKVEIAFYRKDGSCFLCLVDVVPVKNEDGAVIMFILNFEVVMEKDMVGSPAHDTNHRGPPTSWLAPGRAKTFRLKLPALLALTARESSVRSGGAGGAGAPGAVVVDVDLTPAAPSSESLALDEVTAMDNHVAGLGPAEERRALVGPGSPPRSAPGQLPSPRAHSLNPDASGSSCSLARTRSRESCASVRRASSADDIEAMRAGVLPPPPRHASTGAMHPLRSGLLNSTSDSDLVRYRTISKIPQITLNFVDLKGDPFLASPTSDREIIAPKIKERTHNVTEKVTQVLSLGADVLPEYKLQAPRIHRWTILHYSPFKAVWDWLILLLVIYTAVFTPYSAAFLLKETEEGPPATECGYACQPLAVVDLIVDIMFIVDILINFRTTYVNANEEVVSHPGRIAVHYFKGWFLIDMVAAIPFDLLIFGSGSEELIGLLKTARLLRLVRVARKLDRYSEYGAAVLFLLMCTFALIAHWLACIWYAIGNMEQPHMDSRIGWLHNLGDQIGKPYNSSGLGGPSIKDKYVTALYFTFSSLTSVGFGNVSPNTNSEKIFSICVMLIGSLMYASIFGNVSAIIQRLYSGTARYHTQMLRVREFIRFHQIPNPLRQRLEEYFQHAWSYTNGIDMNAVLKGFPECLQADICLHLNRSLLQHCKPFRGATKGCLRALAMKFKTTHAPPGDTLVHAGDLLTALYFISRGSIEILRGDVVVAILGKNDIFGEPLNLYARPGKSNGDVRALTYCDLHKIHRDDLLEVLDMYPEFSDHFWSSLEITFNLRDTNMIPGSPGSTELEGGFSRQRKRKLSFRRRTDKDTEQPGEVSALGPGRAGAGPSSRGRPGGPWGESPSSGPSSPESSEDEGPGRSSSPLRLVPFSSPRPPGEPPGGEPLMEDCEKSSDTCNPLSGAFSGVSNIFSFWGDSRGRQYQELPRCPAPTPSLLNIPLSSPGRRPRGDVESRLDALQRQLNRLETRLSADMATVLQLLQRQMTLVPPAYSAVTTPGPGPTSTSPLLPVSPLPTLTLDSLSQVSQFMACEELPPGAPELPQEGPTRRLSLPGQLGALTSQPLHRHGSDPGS

SMILES	hERG current change (%, negative = inhibition) at 10uM [%]
Cn1c(N)c(C(=O)COC(=O)c2ccc3c(c2)C(=O)N(c2ccc(Cl)cc2)C3=O)c(=O)n(C)c1=O	-41.5
COc1ccc(CCN2CC(C(=O)NCCCn3nc(C)cc3C)CCC2=O)cc1 (stereo not drawn)	-23.3
COC(=O)c1c(O)c2c([nH]c1=O)CCCC2	1.25
OC(CCN1CCC2(CC1)OCCO2)C(F)(F)F (stereo not drawn)	2.61
O=C1S/C(=C/c2ccc(N3CCOCC3)o2)C(=O)N1Cc1ccc(F)cc1	0.628
COc1cc(C(=O)Nc2cccc(NC(=O)c3cccs3)c2)cc(OC)c1OC	-13.8
O=C(CSCc1ccccc1)Nc1nccs1	-6.44
CCn1cc(Br)c(C(=O)Nc2nccs2)n1	10.2
CCOC(=O)c1cc(-c2ccccc2)sc1NC(=O)CC	1.19
CC(C)C(c1nnnn1Cc1ccc(F)cc1)N1CCSCC1 (stereo not drawn)	-20.7
Cc1cccc(-c2nc(CS(=O)CC(=O)NC(C)CCc3ccccc3)c(C)o2)c1 (stereo not drawn)	-45
Cc1ccc(CCNC(=O)C2CCCN(S(=O)(=O)c3cnc[nH]3)C2)cc1 (stereo not drawn)	3.78
CCOC(=O)CC1C(=O)NCCN1S(=O)(=O)c1ccc(NC(C)=O)cc1 (stereo not drawn)	18.8
O=C(NCc1cccnc1)c1ccc(CS(=O)(=O)c2ccc(Br)cc2)o1	-17.6
O=C(Nc1ccccn1)C(=O)Nc1ccccn1	-3.33
c1ccc(-c2csc(Nc3ncccn3)n2)cc1	19.6
CC1(C)CC2CC(C)(CN2C(=O)CN2C(=O)c3ccccc3C2=O)C1 (stereo not drawn)	4.1
CCCC(=O)Nc1cc(OC)c(OC)cc1C(=O)O	3.16
Oc1c(Cl)cc(Cl)cc1C=Nc1ccc(Br)cc1	4.99

SMILES	hERG current change (%, negative = inhibition) at 10uM [%]
CCCC(=O)Nc1ccc2nc(SCC(=O)Nc3nccs3)sc2c1	18.8
CCCc1cc(=O)[nH]c(SCC(=O)c2cc(C)n(C3CC3)c2C)n1	-1.13
CC1CC(=O)Nc2ccccc2N1S(=O)(=O)c1ccccc1 (stereo not drawn)	-3.01
COc1ccc(C(CCN2CCN(c3ccccc3)CC2)c2c(O)cc(OC)cc2OC)cc1 (stereo not drawn)	-30.5
CCCCOc1ccc(C(=O)N/N=C/c2cn[nH]c2-c2ccc(OC)c(OC)c2)cc1	-2.85
O=C(Nc1nc(-c2ccc(Cl)s2)cs1)c1ccco1	-11.1
Cc1c(NC(=O)Nc2ccc(F)cc2)c(=O)n(-c2ccccc2)n1C	17.8
Cl.O=C(N/N=C1/CN2CCC1CC2)c1cc2ccccc2cc1O	20
COc1cccc(CN(C)C(=O)c2ccc(NS(=O)(=O)c3ccc(F)cc3)cc2)c1OC	-9.34
COc1ccc(C(C[N+](=O)[O-])c2c(C)[nH]n(-c3ccccc3)c2=O)cc1 (stereo not drawn)	-7.97
Nc1cc(=O)[nH]c(SCCSc2ccccc2F)n1	12.3
CCOC(=O)c1ccc(NC(=O)c2cc(OC)c(OC)c(OC)c2Br)cc1	7.53
CCCN(CCC)C(=O)c1c(NC(=O)CC)sc2c1CCCCC2	-1.91
C[C@@H]1NC(=O)[C@H](CCC(=O)O)NC(=O)c2cc([N+](=O)[O-])cc(F)c2NCCC[C@@H](C(N)=O)NC1=O	15.2
O=C1C=C(N2CCCCC2)C2(CCCCC2)O1	11.3
Cc1cccc2cc(CN(CCCO)C(=O)Nc3cccc(Cl)c3)c(=O)[nH]c12	-28.4
O=C(CCc1nc2ccccc2c(=O)[nH]1)Nc1nnc(SCc2ccccc2F)s1	-1.22
CCn1c(SCC(=O)NC2CCCC2)nnc1-c1ccco1	14.8
CCC(C)n1c(SCC(=O)Nc2cc(C(C)(C)C)nn2-c2ccccc2)nc2ccccc2c1=O (stereo not drawn)	3.57

SMILES	hERG current change (%, negative = inhibition) at 10uM [%]
O=C(CSc1ncnc2c1oc1ccccc12)c1cccs1	11.5
CC(=O)NC(c1ccc(Cl)cc1Cl)c1ccc2cccnc2c1O (stereo not drawn)	10.3
CN(CC(=O)N1CCN(c2ccccn2)CC1)S(=O)(=O)c1cccc2nsnc12	-23.6
Cc1cc(C(=O)Nc2ccc(Br)cc2)cs1	-42
O=C(Cc1ccccc1)NCC(=O)OC(c1ccccc1)c1ccccc1	-10.1
CCOC(=O)CNC(=O)c1cccs1	21.6
COCCN(C(=O)c1ccco1)c1nnc(-c2ccc(F)cc2)s1	14.8
Cc1ccc(S(=O)(=O)Nc2ccc(-c3ccc4nncn4n3)cc2)cc1	-9.23
COC(=O)C1=C(c2ccc(-c3ccccc3)c(F)c2)C[C@@H]2CC[C@H]1N2C(=O)N1CCCC1	-8.37
COc1cccc(CN(C)C(=O)c2ccc3c(=O)n4c(nc3c2)CCC4)c1	-11.3
O=C(c1ccco1)N1CCN(c2c([N+](=O)[O-])nn(-c3ccc(Cl)cc3)[n+]2[O-])CC1	-57.2
CC(/C=N/NC(=O)c1ccc(Br)cc1)=C\c1ccccc1	-3.38
CCO[C@@H]1OC(C(N)=O)=C[C@H](c2ccccc2)[C@H]1CCCO	8.98
Cc1cc(C)c(NC(=O)CS(=O)CC(=O)N2CCN(c3cccc(C)c3C)CC2)c(C)c1 (stereo not drawn)	-17.6
CCOC(=O)Cc1csc(NC(=O)C(NC(=O)C2CCC(C)CC2)C(C)C)n1 (stereo not drawn)	23.5
CCc1nnc(NC(=O)CSc2nnc(Cc3ccc(OC)cc3)o2)s1	6.59
O=C(CSc1ncccn1)NCc1ccccc1Cl	-2.63
O=C(Nc1nc2ccccc2[nH]1)c1cccs1	10.4
O=C(O)c1cc(-c2ccc(/C=N/Nc3ccc(Cl)cc3)o2)ccc1Cl	21
